Assay results: PubChem BioAssay AID1645882 (National Center for Advancing Translational Sciences (NCATS), 2021)
Hit rate of the full screen: of about 16,000 compounds, about 120 (0.75%) were called active. Another 4% or so got no clear call; they are omitted. Calls follow the shape of the dose curve; as a rule, active = well fitted inhibition curve with a large enough effect; inconclusive = small, poorly fitted or top-dose-only effect; inactive = no such curve, though single readings can be large or run the other way. Some of the results follow. *1 amine or outer side, *2 acyl side, *3 side chain or, on linkers, in order; H or OH if unused. Where a SMILES comes first, the peptide text is derived from it. Bridges are numbered along the chain shown (N, C = ends). [ ]: non-standard residue; d: D form. The star is where a group is joined. X6 = NC1=N[C@@H](O)C[C@H]([C@H](N[*:1])C(=O)[*:2])N1; ΔAla(3-NHCONH2) = NC(=O)NC=C(N)C(=O)O; β3hOrn = NCCC[C@H](N)CC(=O)*; Dap = NC[C@H](N)C(=O)O

The molecules below were run against Rap guanine nucleotide exchange factor 3 (Homo sapiens) (UniProt O95398) (assay: Validation qHTS for antagonist of cAMP-regulated guanine nucleotide exchange factor 3 (EPAC1)). Details: EPAC1 Rap1B-BODIPY-GDP exchange, fluorescence; series mostly up to 150 µM; activity change, negative = inhibition: at the top concentration.
Method in brief: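 EPAC1 (100 nM) mixed with 250 nM RAP1B-BODIPY-GDP and 50 uM GDP; compounds in concentration series, 5 min at room temperature. Fluorescence (ex 480/em 540 nm) read every 5 min for 30 min; normalized to ATA control and DMSO.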
Also: nearly all actives have a fitted effect of over 75% in size.

Chain of UniProt O95398 (O95398 whole entry, looked up): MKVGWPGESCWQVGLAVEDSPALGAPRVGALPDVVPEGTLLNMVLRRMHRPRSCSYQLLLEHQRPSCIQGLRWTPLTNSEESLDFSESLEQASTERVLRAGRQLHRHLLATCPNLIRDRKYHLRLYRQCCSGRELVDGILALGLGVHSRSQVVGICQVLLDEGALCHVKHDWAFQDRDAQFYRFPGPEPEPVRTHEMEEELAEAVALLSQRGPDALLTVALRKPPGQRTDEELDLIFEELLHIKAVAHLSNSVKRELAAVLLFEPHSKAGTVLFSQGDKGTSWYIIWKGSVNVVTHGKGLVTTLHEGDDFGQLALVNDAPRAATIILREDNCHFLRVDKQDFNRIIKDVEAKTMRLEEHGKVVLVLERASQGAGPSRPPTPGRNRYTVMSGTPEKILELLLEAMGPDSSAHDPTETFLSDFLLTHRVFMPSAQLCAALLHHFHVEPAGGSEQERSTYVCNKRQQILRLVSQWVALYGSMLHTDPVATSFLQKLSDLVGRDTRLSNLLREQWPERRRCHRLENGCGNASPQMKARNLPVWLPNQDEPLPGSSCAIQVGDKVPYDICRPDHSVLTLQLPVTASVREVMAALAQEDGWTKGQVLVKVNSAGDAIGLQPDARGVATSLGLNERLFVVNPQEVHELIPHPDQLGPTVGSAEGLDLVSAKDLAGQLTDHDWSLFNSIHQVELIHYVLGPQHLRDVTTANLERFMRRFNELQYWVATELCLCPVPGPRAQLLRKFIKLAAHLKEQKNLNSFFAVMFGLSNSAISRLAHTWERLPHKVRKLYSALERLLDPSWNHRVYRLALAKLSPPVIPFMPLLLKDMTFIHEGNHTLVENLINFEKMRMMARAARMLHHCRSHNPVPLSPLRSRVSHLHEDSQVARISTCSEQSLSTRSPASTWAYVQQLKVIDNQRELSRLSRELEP

Activity change, negative = inhibition, inactive:
CC(C)CN1CCC2(CC1)CCN(C(=O)c1cnccn1)CC2 18.3%
Nc1ncnc2c1c(-c1ccc(Oc3ccccc3)cc1)cn2C1CCCC1 4.45% [at 75.8 µM]
CN1C(=O)N(C)C2=NNC=NC2(O)C1=O (stereo unspecified) 10.7%
COC(=O)C1CCN(Cc2ccc3c(c2)CN(C(=O)c2ncc(C)[nH]2)CCO3)CC1 23.5%
CCN(CC)CCc1nc(-c2ccccc2)no1 2.86% [at 75.8 µM]
CN(C)Cc1ccccc1-c1cncnc1Nc1ccccc1 -1.58%
c1cncc(-c2nc(-n3ccnc3)c3ccccc3n2)c1 -0.704%
CCCCC(CC)COC(=O)/C=C/c1ccc(OC)cc1 (stereo unspecified) -0.261%
Cc1ccc2ncc(C)c(C)c2c1 21%
CCC(/C=C/C(C)C1CCC2C3CC=C4CC(O)CC[C@@]4(C)C3CC[C@@]12C)C(C)C (stereo partly specified) 19.5%
CCCCc1nc(Cl)c(CO)n1Cc1ccc(-c2ccccc2-c2nn[nH]n2)cc1 8.71%
c1nc(N2CCNCC2)c2cc(-c3ccc4c(c3)OCO4)ccc2n1 6.42%
CCCCCC[C@@H](O)C/C=C\CCCCCCCC(=O)O
CC1=CCC2CC1C2(C)C (stereo unspecified) 22.6%
CNCC(O)c1ccc(OC(=O)C(C)(C)C)c(OC(=O)C(C)(C)C)c1 (stereo unspecified) 23.8% [at 75.8 µM]
CC(C)(C)NC(=O)[C@H]1CC[C@H]2[C@@H]3CC=C4C=C(C(=O)O)CC[C@]4(C)[C@H]3CC[C@]12C 34.5%
CC(NC(=O)c1ccco1)c1nnc2n1CCN(Cc1ccc(N3CCCC3)cc1)CC2 (stereo unspecified) -3.27%
Cc1ccccc1-c1nccc(NCc2cccs2)n1 -21.3%
Cc1cccc(CNC(=O)c2cnn(-c3nccc(-c4ccccc4F)n3)c2C2CC2)n1 16.3%
COCc1c(C(=O)N2CCN(C3CCCC3)CC2)cnn1-c1nccc(-c2cccs2)n1 -16.9%
COc1ccccc1CNc1ncnc2ccc(-c3cccc(C#N)c3)cc12 -9.96%
O=S(=O)(O)NC1CCCCC1 14.1%
CN(Cc1ccco1)C(=O)c1cc(NC(=O)C2CCC2)c2c(c1)nc(-c1ccncc1)n2C -3.58%
COc1cc(=O)n2c(c1C(=O)NC(C)c1ccco1)CCN(Cc1ccnc3ccccc13)CC2 (stereo unspecified) 8.89%
CC1(C)[C@H]2CC[C@]1(C)[C@H](O)C2 11.7%
COc1cc(OC)c(/C=C/c2ccc3ccccc3n2)c(OC)c1 11.9%
Cc1noc(C)c1CC(=O)NCC1Cc2cc(-c3cccc(OC(F)(F)F)c3)ccc2O1 (stereo unspecified) -1.58%
COc1ccccc1-c1nc2cc(C(=O)NC[C@H]3CCc4ccccc4O3)cc(NC(C)=O)c2n1C -10.5%
CC(C)NC[C@@H](O)COc1cccc2ccccc12
CC(=O)Oc1ccc2c(c1)CCC1C2CC[C@@]2(C)C1CC(OC(C)=O)C2OC(C)=O (stereo partly specified) 16.4%
CCc1cn([C@H]2C[C@H](O)[C@@H](CO)O2)c(=O)[nH]c1=O -8.77%
COC(=O)[C@H](CC(C)C)NS(=O)(=O)N[C@@H](CC(C)C)C(=O)OC 7.84%
Cc1nc2cnc(N3CCN(C)CC3)nc2n(CCc2ccccc2)c1=O 3.32%
CN1CCN(c2cc3c(nn2)Oc2ccccc2N3C)CC1 11%
COc1ccc(C(=O)C[n+]2ccccc2Cl)cc1 7.36%
Cc1c(C(=O)N(C)Cc2cscn2)sc2ncnc(NC[C@H]3CCc4ccccc4O3)c12 14.9%
CCCCCc1ccc(-c2cn(Cc3cccc(OC)c3)nn2)cc1 -7.59%
COc1ccccc1C1CN(Cc2c(O)cccc2OC)Cc2ccccc2O1 (stereo unspecified) 8.51%
CC(=O)O[C@H](CC(=O)O)C[N+](C)(C)C -3.04%
CCC1=C(C)CN(C(=O)NCCc2ccc(S(=O)(=O)NC(=O)NC3CCC(C)CC3)cc2)C1=O (stereo unspecified) 26.8%
N#CCCn1c(=O)c(CCc2ccccc2)nc2cnc(Oc3ccccc3)nc21 6.24%
CN1CCN(c2nc3cc(C(F)(F)F)ccc3n3cccc23)CC1
COc1cccc(C2(CC(=O)N3CCN(c4ccccn4)CC3)CC(=O)N(C3CCCC3)C2=O)c1 (stereo unspecified) 3.48%
CC(C)(C)C1(O)CCN2CC3c4ccccc4CCc4cccc(c43)C2C1 (stereo unspecified) -0.178%
Fc1cccc(/C=N/N=C/c2cccc(F)c2)c1 9.48% [at 75.8 µM]
O=C(O)/C=C/c1ccc(Cn2ccnc2)cc1 13.6% [at 75.8 µM]
O=C(NO)c1ccccc1 27.3% [at 320 µM]
COc1ccc(-n2c(=O)c(-c3cn(C)c4ccccc34)nc3cnc(N4CCOCC4)nc32)cc1 11.2%
COc1ccc(-n2c(CNC(=O)c3cc(C(F)(F)F)ccc3Cl)nnc2SC)cc1 16.2%
COc1cccc(Cn2c(=O)c(-c3ccc(F)cc3)nc3cnc(N4CCNCC4)nc32)c1 -9.44%
CCN(CC)CCOc1ccccc1OC 3.14%
O=C(c1ccncc1)N1CCC2(CCN(Cc3ccccc3)CC2)CC1 11%
CCCCCCCCN1[C@@H](CC(=O)O)c2cc(C(F)(F)F)ccc2S1(=O)=O 9.17%
CCc1nc2cc(C(=O)NC3CCS(=O)(=O)C3)cc(NC(=O)c3ccccc3OC)c2n1C (stereo unspecified) 9.26%
COc1cccc(-c2cc(NCCc3c[nH]c4ccc(OC)cc34)ncn2)c1 -18.4%
Cc1ncc2c(c1CNC(=O)/C=C/c1cccs1)CCN(C(=O)c1cc(C(C)C)on1)C2 13.1%
COCCOC(=O)C1=C(C)NC(C)=C(C(=O)OC/C=C/c2ccccc2)C1c1cccc([N+](=O)[O-])c1 (stereo unspecified)
Cc1cccc(CNc2cc(-c3cccnc3)ncn2)c1 23.9%
O=c1cnc2cnc(Oc3ccccc3)nc2n1Cc1cccs1 0.937%
CC1CC(O)CC(C)(C)C1 (stereo unspecified) -4.77%
CCC(C)[C@H]1O[C@]2(C=C[C@@H]1C)C[C@@H]1C[C@@H](C/C=C(\C)[C@@H](O[C@H]3C[C@H](OC)[C@@H](O[C@H]4C[C@H](OC)[C@H](NC(C)=O)[C@H](C)O4)[C@H](C)O3)[C@@H](C)/C=C/C=C3\CO[C@@H]4[C@H](O)C(C)=C[C@@H](C(=O)O1)[C@]34O)O2 (stereo partly specified) 8.43%
CC(C)=CCC/C(C)=C/CC/C(C)=C/CC/C(C)=C/CC/C(C)=C/CC/C(C)=C/CC/C(C)=C/CC/C(C)=C/CC/C(C)=C/CO -6.56%
Cn1cccc1C(=O)N1CCC2(CC1)CN(c1ccncc1)C2 14.7%
FC(F)(F)C(F)(F)C(F)(F)C(F)(F)C(F)(F)F 0.495%
O=S1(=O)OC(c2ccc(O)cc2)(c2ccc(O)cc2)c2ccccc21 0.463%
COc1ccc(Oc2ncc3nc(C)c(=O)n(Cc4cccc(OC)c4)c3n2)cc1 3.09%
CCCCNc1ccc(C(=O)OCCOCCOCCOCCOCCOCCOCCOCCOCCOC)cc1 7.6% [at 75.8 µM]
CCOC(=O)CCCCCCCCCCCCC1C=CCC1 (stereo unspecified) 12.5%
COc1ccc(O)c(CN2CCC3(CCC(CNC(=O)c4ccco4)O3)CC2)c1 (stereo unspecified) 9.35%
COc1ccc2[nH]c(C)cc2c1 16.4%
c1ccc(CNc2cc(-c3ccoc3)ncn2)cc1 13.6%
CCn1nc(C(=O)O)c(=O)c2cc3c(cc21)OCO3
O=C(O)C(S)C(S)C(=O)O (stereo unspecified) 16.8%
CCCCN1CCC(CCC(=O)c2cc(Cl)c(N)cc2OC)CC1
COc1cc2c(cc1OC)C(c1ccc(N)cc1)=NNC(=O)C2
Cc1onc(-c2ccccc2Cl)c1C(=O)NC1C(=O)N2C1SC(C)(C)C2C(=O)O (stereo unspecified) 23.1%
Cc1cc(/C=C/c2ccc3cc(N(C)C)ccc3[n+]2C)c(C)n1-c1ccccc1 11% [at 75.8 µM]
CC(C(=O)O)c1ccc(N2Cc3ccccc3C2=O)cc1 (stereo unspecified) 16.8%
CO[C@@]12[C@H](COC(N)=O)C3=C(C(=O)C(C)=C(N)C3=O)N1C[C@@H]1N[C@@H]12 1.16%
NCCC[C@H](N)CC(=O)N[C@H]1CNC(=O)[C@H]([C@H]2C[C@H](O)N=C(N)N2)NC(=O)C(=CNC(N)=O)NC(=O)[C@H](CO)NC(=O)[C@H](CO)NC1=O (β3hOrn-[Dap]SS[ΔAla(3-NHCONH2)][X6]; lactam 1-C) 23.2% [at 39.6 µM]
COc1ccccc1CCn1c(=O)c(-c2cn(C)c3ccccc23)nc2cncnc21 -16.4%
O=C(c1ccccc1)C(c1ccccc1)[n+]1csc2ccccc21 (stereo unspecified) 8.41%
CC(NN)c1ccccc1 (stereo unspecified) 21.6%
COc1cc(-c2noc(C)c2/C=C/c2ccc(N)cc2)cc(OC)c1OC -13.7%
COc1ccc(C(=O)N2CCC[C@@]3(CCN(C)C3)C2)cc1 20.8%
CN1CCCN(C(=O)[C@@H]2C[C@@H](Sc3nc4ccccc4[nH]3)CN2Cc2ccc(OC(F)(F)F)cc2)CC1 -2.69%
C#C[C@@]1(O)CCC2C3CCc4cc(O)ccc4C3CC[C@@]21C (stereo partly specified) 16.2%
Cc1c(C(=O)N2CCCC(C)C2)sc2ncnc(NCCN3CCCCC3)c12 (stereo unspecified) 19.3%
N[C@]1(C(=O)O)CCc2cc(C(=O)O)ccc21 -9.44%
COC(=O)C1=C(C)NC(C)=C(C(=O)OCCCN2CCC(c3ccccc3)(c3ccccc3)CC2)[C@H]1c1cccc([N+](=O)[O-])c1 -15.4%
Cc1ccc(Cl)c(Nc2ccccc2C(=O)O)c1Cl
CC(C)C[C@@H](CO)N1CCN(Cc2ccccc2)CCC1=O
Cn1cccc1C(=O)N1CCC[C@@]2(CCN(C(c3ccccc3)c3ccccc3)C2)C1 0.23%
COc1ccc(OC)c(C(=O)N2CCc3c(cnc(C)c3CNS(=O)(=O)N(C)C)C2)c1 2.11%
O=C(NCCO[N+](=O)[O-])c1cccnc1 21.8%
CCN1CCN(C(=O)N[C@@H](C(=O)N[C@@H]2C(=O)N3C(C(=O)O)=C(CSc4nnnn4C)CS[C@H]23)c2ccc(O)cc2)C(=O)C1=O 17.6%
CN(C)CCOc1ccc(/C(=C(/CCCl)c2ccccc2)c2ccccc2)cc1 -1.85%
COCCn1c(=O)c(-c2cccs2)nc2cnc(N3CCOCC3)nc21 30.5%
CCCn1c(=O)c2c(ncn2C)n(CCC)c1=O
COc1cccc(CNC(=O)c2c(OC)cc(=O)n3c2CCN(C(=O)c2cc(F)cc(F)c2)CC3)c1 6.11%
C[C@H]1C[C@H]2[C@@H]3CCC4=CC(=O)C=C[C@]4(C)[C@@]3(F)[C@@H](O)C[C@]2(C)[C@@]1(O)C(=O)CO 7.1%
